Source: PubChem BioAssay AID2147 (National Center for Advancing Translational Sciences (NCATS), 2009)
Values joined by “and” are separate entries in the source; they are usually repeats but may differ in a detail not shown here. Equal entries are not always repeated. Out of some 230,000 compounds screened, about 3,600 (1.6%) were called active. This list was built around the results that the source calls inconclusive (neither active nor inactive); the mix of calls is not that of the screen. Calls follow the shape of the dose curve; as a rule, active = well fitted inhibition curve with a large enough effect (not every such curve was filed as active); inconclusive = small, poorly fitted or top-dose-only effect, or another doubt; inactive = no such curve, though single readings can be large or run the other way. Potencies beside an inconclusive call are fits to weak or partial responses and may not hold up.

Target: Lysine-specific demethylase 4E (Homo sapiens) (UniProt B2RXH2)
UniProt B2RXH2, sequence (B2RXH2 whole entry, looked up, the tested form may be a part): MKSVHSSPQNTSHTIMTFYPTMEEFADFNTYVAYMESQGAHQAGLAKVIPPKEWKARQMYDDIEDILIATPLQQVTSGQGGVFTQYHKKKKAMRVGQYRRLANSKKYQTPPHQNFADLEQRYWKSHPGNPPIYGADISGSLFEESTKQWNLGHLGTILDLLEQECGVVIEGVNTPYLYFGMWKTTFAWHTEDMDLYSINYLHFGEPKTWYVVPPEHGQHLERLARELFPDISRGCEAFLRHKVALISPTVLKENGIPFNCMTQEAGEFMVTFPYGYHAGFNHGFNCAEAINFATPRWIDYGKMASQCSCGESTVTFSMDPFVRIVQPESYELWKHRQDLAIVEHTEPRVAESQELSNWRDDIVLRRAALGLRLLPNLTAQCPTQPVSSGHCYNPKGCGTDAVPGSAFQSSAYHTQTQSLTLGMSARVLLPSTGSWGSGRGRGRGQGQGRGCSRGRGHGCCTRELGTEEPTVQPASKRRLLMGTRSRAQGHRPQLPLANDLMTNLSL
Assay: qHTS Assay for Inhibitors of Human Jumonji Domain Containing 2E (JMJD2E)
Conditions: JMJD2E catalytic domain, FDH-coupled NADH fluorescence (FDH is formaldehyde dehydrogenase); series mostly up to 57.1 µM; activity change, negative = inhibition: at the top concentration
Also: nearly all actives have a fitted effect of over 50% in size.
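For activity change, negative = inhibition in this document: 0% = wells with enzyme and -100% = buffer wells without enzyme.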
Potency is read from the fitted curve at half-maximal effect; tags tell the direction and shape of the fitted curve.

Row | SMILES | activity change, negative = inhibition | Potency
1 | O=C1CCC(=O)N1c1cccc(OS(=O)(=O)c2ccccc2)c1 | inactive: 13.4% | –
2 | CC(C)c1ccc(CCNC(=O)c2ccc([N+](=O)[O-])cc2)cc1 | – | inconclusive: 35.5 µM [inhibitor, single point]
3 | O=C(Cc1ccc(Cl)cc1)c1c[nH]c(C(=O)NCCCN2CCOCC2)c1 | inactive: -1.52% | –
4 | N#Cc1c(-c2cccs2)nc(SCC(=O)c2cccs2)[nH]c1=O | inactive: -3.89% | –
5 | CCN(CC)C(=O)c1ccc(Oc2ccc([N+](=O)[O-])cc2Cl)cc1 | inactive: -4.38% | –
6 | CC1=CC=CN2CC(O)CN=C12 (configuration not stated) | – | inconclusive: 15.8 µM [inhibitor, partial curve]
7 | O=C(O)COc1c(-c2ccco2)oc2ccccc2c1=O | – | inconclusive: 31.6 µM [inhibitor, partial curve]
8 | O=S(=O)(Nc1cccc(-c2nc3cccnc3s2)c1)c1ccc2c(c1)OCCO2 | – | inconclusive: 31.6 µM [inhibitor, single point]
9 | CCOC(=O)C1CCN(c2nc(C)nc3c2oc2ccccc23)CC1 | – | inconclusive: 25.1 µM [inhibitor, single point]
10 | Cc1cc(C)nc(SCc2cn3c(C)cc(C)nc3n2)n1 | – | inconclusive: 35.5 µM [inhibitor, partial curve]
11 | CC(/C=N/n1c(-c2cccnc2)n[nH]c1=S)=C\c1ccccc1 | – | inconclusive: 3.16 µM [inhibitor, single point]
12 | CCc1ccc(C2=CC(c3cc(Br)ccc3F)n3ncnc3N2)cc1 (configuration not stated) | – | inconclusive: 25.1 µM [inhibitor, partial curve]
13 | O=c1c2sccc2n(Cc2cc(=O)n3ccccc3n2)c(=O)n1-c1ccccc1 | – | inconclusive: 28.2 µM [inhibitor, partial curve]
14 | COCCn1c(C)cc(C(=O)COC(=O)c2cc3c(s2)CCC3)c1C | – | inconclusive: 28.2 µM [inhibitor, single point]
15 | CCCCn1c(SCC(=O)/C(C#N)=C(\C)N)nc2ccccc2c1=O | – | inconclusive: 39.8 µM [inhibitor, single point]
16 | CCC1(C)NC(=O)N(CC(=O)Nc2sc3c(c2C(=O)OC)CCCCC3)C1=O (configuration not stated) | inactive: -2.35% | –
17 | COc1ccc(NC(C(=O)Nc2cccc(C(C)=O)c2)c2ccccc2)cc1 (configuration not stated) | – | inconclusive: 22.4 µM [inhibitor, single point]
18 | O=C(Nc1ccccc1Cl)N1CCN(c2ccc3nnc(-c4ccccc4)n3n2)CC1 | – | inconclusive: 39.8 µM [inhibitor, single point]
19 | CC(=O)COc1ccc2c3c(c(=O)oc2c1)CCCC3 | – | inconclusive: 28.2 µM [inhibitor, partial curve]
20 | CCCCCOC(=O)c1cc(=O)[nH]c2ccccc12 | – | inconclusive: 31.6 µM [inhibitor, single point]
21 | CSc1nc(N)c(C#N)c(-c2ccccc2Cl)c1C#N | – | inconclusive: 39.8 µM [inhibitor, single point]
22 | COC(=O)C1=C(C(=O)OC)SC2(S1)C(C(=O)OC)=C(C(=O)OC)SC1=C2c2cccc(C)c2NC1(C)C | inactive: -8.17% | –
23 | Clc1nc(-c2ccccn2)nc2scc(-c3ccccc3)c12 | inactive: -0.0302% | –

Row | SMILES | activity change, negative = inhibition | Potency
24 | CN(C)S(=O)(=O)c1cccc(NC(=O)c2cc(=O)[nH]c3ccccc23)c1 | – | inconclusive: 28.2 µM [inhibitor, single point]
25 | Cc1cccc(C(=O)OCc2cncs2)c1 | inactive: 0.971% | –
26 | CCOc1ccccc1C1C2C(=O)N(c3ccccc3)C(=O)C2ON1c1ccccc1 (configuration not stated) | inactive: -17.7% | –
27 | O=C(N/N=C/c1ccc([N+](=O)[O-])o1)c1cc2c(ccc3ccccc32)o1 | – | inconclusive: 14.1 µM [inhibitor, partial curve]
28 | COc1ccc(C2=NN(CN3C(=O)C(=O)c4ccccc43)C(c3ccc(C)cc3)C2)cc1 (configuration not stated) | inactive: -4.44% | –
29 | CS(=O)(=O)Nc1nc2n(n1)C(c1ccccc1)C=C(c1ccc(Br)cc1)N2 (configuration not stated) | – | inconclusive: 28.2 µM [inhibitor, partial curve]
30 | COc1ccc(CN(Cc2cc3ccc(C)cc3[nH]c2=O)Cc2nnnn2C2CCCC2)cc1 | – | inconclusive: 28.2 µM [inhibitor, single point]
31 | O=C(Cc1ccccc1Cl)N1CCN(c2ccccn2)CC1 | – | inconclusive: 35.5 µM [inhibitor, partial curve]
32 | O=C(c1cccs1)N1CCc2c([nH]c3ccccc23)C1c1ccccn1 (configuration not stated) | inactive: -6.77% | –
33 | O=C(NCCO)c1ccccc1O | – | inconclusive: 11.2 µM [inhibitor, partial curve]
34 | CC(=O)N1CCc2c(sc(NC(=O)c3ccc4c(c3)OCCO4)c2C#N)C1 | – | inconclusive: 31.6 µM [inhibitor, single point]
35 | Cc1cc(=O)oc2cc(OCC(=O)Nc3nnc(CC(C)C)s3)ccc12 | – | inconclusive: 25.1 µM [inhibitor, single point]
36 | O=C(O)c1ccccc1-c1oc2cc(O)ccc2c(=O)c1Oc1ccccc1 | – | inconclusive: 39.8 µM [inhibitor, single point]
37 | O=C(C1CC1)N1CCc2cc(Br)cc(S(=O)(=O)NCc3ccccn3)c21 | inactive: 0.526% | –
38 | CC/C=C\C/C=C\C/C=C\C/C=C\C/C=C\C/C=C\CCC(=O)O[C@H](COCCCCCCCCCCCCCCCC)COP(=O)([O-])OCC[N+](C)(C)C | inactive: -5.01% | –
39 | O=C(CSc1nnnn1C1CCCCC1)Nc1cccc(NC(=O)c2ccco2)c1 | inactive: -4.59% | –
40 | CCn1c(=N)c(C(=O)NC)cc2c(=O)n3cccc(C)c3nc21 | – | inconclusive: 3.16 µM [inhibitor, full curve]
41 | Cc1ccc(NC(=O)c2oc3ccccc3c2NC(=O)C2CCCO2)cc1C (configuration not stated) | – | inconclusive: 35.5 µM [inhibitor, single point]
42 | COc1cc(O)c(C(CCN2CCN(c3ccccc3)CC2)c2ccc3c(c2)OCO3)c(OC)c1 (configuration not stated) | – | inconclusive: 31.6 µM [inhibitor, single point]
43 | C=CCNC(=O)N1CCc2nc(-c3ccc(OC)cc3C)c3c(c2C1)CO[C@@H](c1ccccc1)C3 | inactive: 8.43% [at 11.4 µM] | –
44 | CCCCCn1c(=NC(C)=O)c(C#N)cc2c(=O)n3ccccc3nc21 | – | inconclusive: 3.98 µM [inhibitor, full curve]
45 | O=S(=O)(c1ccccc1)c1nc(-c2ccco2)oc1N1CCCCCC1 | – | inconclusive: 35.5 µM [inhibitor, single point]
46 | COc1cccc(C(=O)N(Cc2ccco2)Cc2cc3cccc(C)c3[nH]c2=O)c1 | – | inconclusive: 39.8 µM [inhibitor, single point]

Row | SMILES | activity change, negative = inhibition | Potency
47 | CCOC(=O)/C(=C\C=C\c1ccccc1)NC(=O)c1ccccc1 | – | inconclusive: 1 µM [inhibitor, partial curve]
48 | COC(=O)c1ccccc1NC(=S)NC(NC(=O)c1ccccc1[N+](=O)[O-])C(Cl)(Cl)Cl (configuration not stated) | – | inconclusive: 25.1 µM [inhibitor, partial curve]
49 | O=C(/C=C/c1ccc(Cl)c(Cl)c1)NC1=NCCS1 | inactive: -5.83% | –
50 | O=C(c1ccc(Cl)cc1)[C@@H]1[C@@H]2C(=O)N(c3ccccc3)C(=O)[C@@H]2C2c3ccccc3C=NN21 (some centres not stated) | inactive: -23.4% | –
51 | COc1ccccc1NS(=O)(=O)c1cccc(C(=O)N/N=C/c2c(C)nn(-c3ccccc3)c2N2CCCC2)c1 | – | inconclusive: 25.1 µM [inhibitor, partial curve]
52 | COc1ccc(OCC(=O)OCC(=O)N2CC(=O)Nc3ccccc32)cc1 | inactive: -0.138% | –
53 | O=C(NCC1CCCN(Cc2ccc3nonc3c2)C1)c1cccc(C(F)(F)F)c1 (configuration not stated) | inactive: -2.37% | –
54 | O=C(Cn1ncc2c1-c1ccccc1OC2)Nc1cccc(Cl)c1 | – | inconclusive: 35.5 µM [inhibitor, single point]
55 | Cc1nnc2ccc(-c3cccc(NS(C)(=O)=O)c3)nn12 | – | inconclusive: 31.6 µM [inhibitor, single point]
56 | COC(=O)c1ccc(NC(=O)c2cc3sccc3n2C)cc1 | – | inconclusive: 25.1 µM [inhibitor, single point]
57 | COc1ccccc1C(=O)Nc1cc(Cl)ccc1O | – | inconclusive: 28.2 µM [inhibitor, single point]
58 | CC(C)Cc1nnc(NC(=O)c2cc3c(s2)CCC3)s1 | – | inconclusive: 31.6 µM [inhibitor, partial curve]
59 | COc1ccc(Br)cc1CNC(=O)CCNC(=O)Cn1ccc2ccccc2c1=O | – | inconclusive: 39.8 µM [inhibitor, single point]
60 | COc1ccc(/C=C2\SC(=N)N(c3ccc(F)cc3)C2=O)cc1OC | inactive: -6.06% | –
61 | COc1cc2c(cc1NC(=O)COC(=O)C1CC(=O)N(Cc3ccco3)C1)oc1ccccc12 (configuration not stated) | – | inconclusive: 28.2 µM [inhibitor, partial curve]
62 | Cc1ccc(S(=O)(=O)Nc2ccccn2)cc1[N+](=O)[O-] | – | inconclusive: 0.282 µM [inhibitor, partial curve, poor fit]
63 | CCOC(=O)c1cc2c(ccn2C)n1CC(=O)N1CCN(c2cccc(C(F)(F)F)c2)CC1 | – | inconclusive: 39.8 µM [inhibitor, single point]
64 | C[C@H]1C2=C3C(CC[C@H]4C(OCc5ccc(F)cc5C(F)(F)F)OC[C@](C)([C@@H]34)N(C(=O)OC(C)(C)C)C2)C2COC(=O)OCC21 (some centres not stated) | – | inconclusive: 20 µM [inhibitor, single point]
65 | CC(CCCCC(=O)Nc1ccc(C(F)(F)F)cc1)NCCc1cnc[nH]1 (configuration not stated) | inactive: 6.08% | –
66 | Cc1cc(O)c(C=O)c2c1C(=O)Oc1c(CO)c(O)c3c(c1O2)C(O)OC3=O (configuration not stated) | – | active: 20 µM
67 | OCCN(CCO)c1nc(N2CCCCC2)c2nc(N(CCO)CCO)nc(N3CCCCC3)c2n1 | – | inconclusive: 12.6 µM [inhibitor, partial curve] and inconclusive: 31.6 µM [inhibitor, partial curve] and inconclusive: 25.1 µM [inhibitor, partial curve]
